Data as given in the supplement of paper PMC3334620.
Whole data set: some 33,000 sequences, median “E-score (-0.5 to 0.5)” near -0.04, cut for the highest 2% near 0.36. The list shows a part of the results.

Biological target: T1, Hmlalpha2 (UniProt P0CY09)
T1 sequence: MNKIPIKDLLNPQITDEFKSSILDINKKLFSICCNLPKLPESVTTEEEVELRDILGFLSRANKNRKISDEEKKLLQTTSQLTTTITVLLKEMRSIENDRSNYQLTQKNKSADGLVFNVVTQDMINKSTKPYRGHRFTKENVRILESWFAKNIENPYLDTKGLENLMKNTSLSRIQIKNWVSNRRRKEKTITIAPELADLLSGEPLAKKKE
Assay: PBM E-score (8-mer binding enrichment) (E-score (-0.5 to 0.5)); higher = stronger / more preferred TF binding; most listed sequences are background and not binding sites
Settings: protein concentration: 200 nM; construct: GST-full length
Protocol: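 Universal 'all 10-mer' protein binding microarrays (Agilent AMADID 015681) probed with GST-tagged S. cerevisiae TFs (full-length or DBD) made by in vitro transcription/translation (PURExpress), about 100-200 nM. Bound TF was detected with fluorescent anti-GST. Each ungapped 8-mer (which stands for itself and its reverse complement) is scored by the PBM enrichment score (E-score), a modified Wilcoxon-Mann-Whitney statistic from -0.5 to +0.5, computed with the Universal PBM Analysis Suite. Scale: above 0.35 generally sequence-specific binding.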

Point of comparison: CGTGAGTC, “PBM E-score” value -0.235. Against it:
- CGACACGC — higher, 0.243
- ATGATGGA — higher, -0.0342
- ATCGATCG — higher, -0.0333
- AATAGCTC — higher, -0.145
- CTTATGGA — lower, -0.263
- ATCAGCGA — higher, -0.0215
- GCCCCTCA — lower, -0.306
- GGTCATAC — higher, -0.209
- AACGTGAA — higher, 0.218
- CCAATAAC — higher, 0.205
- CTTACTGC — higher, 0.0127
- CATACCCC — higher, -0.136
- GCGACGTA — higher, 0.0408
- ACCGCGAA — higher, -0.126
- GTTATCAA — higher, 0.0753
- ACCGGCTG — higher, -0.0917
- ACGGAACA — higher, 0.00207
- CAAGCTTC — higher, -0.0279
- CGATCTAG — higher, -0.043
- ATGGGCTC — higher, -0.042
- ACTCCGAT — higher, -0.194
- AGACCTTG — higher, -0.00027
- AGTTCTGC — higher, 0.0238
- AAACCTCC — higher, -0.19
- CGCGTACG — higher, 0.32
- ACTAATAA — higher, 0.193
- AGACTTCG — higher, -0.117
- ACGCCTAA — higher, 0.0839
- ACCCCCAA — higher, -0.0845
- CGCCCATC — higher, -0.218
- CAACACGC — higher, 0.367
- GCTACGGA — higher, -0.168
- AAACAGCA — higher, 0.088
- AACAAAGA — higher, 0.203
- CTGGAGTA — higher, -0.168
- CTGTGCGA — higher, 0.00027
- AAAGCGCG — higher, 0.136
- GCAATATA — higher, -0.012
- ATTTCCGA — higher, -0.11
- TGTTTCAA — higher, 0.175
- CTAGACCC — lower, -0.303
- AAGTCTGC — higher, 0.00573
- AAGCACAC — higher, -0.0253
- ATCCCGGC — lower, -0.268
- CTATCGGA — higher, -0.0687
- CAGGCTGG — higher, -0.182
- CTAATCCC — higher, 0.0115
- CGTGTAAG — higher, 0.467
- TATGACCA — higher, 0.0588
- GATTCCAA — higher, -0.0677
- ATACTATC — higher, 0.0717
- GCGTGCCA — higher, -0.128
- CCCAGGAC — higher, -0.231
- GAAGTGTA — higher, 0.0551
- CCTCCGTC — higher, -0.172
- AATACTAC — higher, 0.246
- AGTAGACG — higher, 0.0433
- ACGCTATC — higher, -0.00711
- GTAAGGAC — higher, -0.0727
- AAGAGCTT — higher, -0.1
- GTAACGGA — higher, 0.19
- GTTTAAAC — higher, 0.41
- ACAGGACG — higher, 0.126
- AACTGGAG — lower, -0.319
- AGGTCTGC — lower, -0.237
- CCGGTACC — lower, -0.272
- AACGTATC — higher, 0.0379
- ATAGAAAC — higher, 0.112
- CCAGCAGG — higher, -0.22
- GTGCGGTA — higher, 0.0266
- CTTACTCA — higher, -0.0475
- AGTAGAGC — higher, -0.041
- AGCTCAAT — higher, 0.0207
- ATAATGAC — higher, 0.0211
- TGTCCGAA — higher, -0.0413
- AGGTTGAG — higher, 0.026
- AACTTCGC — higher, 0.0503
- CTGCGCCA — higher, -0.22
- ACAGGAGC — higher, 0.0627
- CTGTTTTC — higher, 0.036
- AACCTCTA — higher, -0.19
- CAGTCGAC — higher, 0.0539
- ATAGACCC — higher, 0.108
- AGTCTGTA — higher, 0.0937
- AGAGTGGC — higher, -0.0809
- GGCTCCAA — higher, -0.214
- GATGAAGA — higher, -0.0823
- ATCGCATC — lower, -0.263
- GAGCCCGC — lower, -0.33
- CCAAATCA — higher, 0.0068
- GGGAACTA — higher, 0.085
- GGACGTAA — higher, 0.145
- CACGGAGC — higher, 0.109
- ACCCCCGA — higher, -0.0909
- GCATACCA — higher, -0.185
- ACCCATGA — higher, -0.153
- ACGGATGC — higher, 0.0163
- TGGATCAA — higher, -0.028
- CTTCTGTC — higher, -0.0642
- CTCTGACC — lower, -0.259
- ACATGTAC — higher, 0.412
- CGCATTTC — higher, 0.0408
- CGGGAAAG — lower, -0.244
- ACGGTCAT — higher, -0.0696
- ATAACGCA — higher, 0.225
- TAACCACA — higher, 0.181
- GTAGGTAA — higher, 0.119
- TGTAAACA — higher, 0.461
- CATCGCTA — higher, 0.0965
- CCGGAAAG — lower, -0.316
- GGCTAACC — higher, -0.104
- GCTCGTCA — higher, -0.0237
- ACAGCTAC — higher, 0.0986
- AAACTAAA — higher, 0.0747
- GAAGAAAC — higher, 0.0429
- CTAATGTA — higher, 0.262
- AAGGATAA — higher, 0.0414
- GGAAGCGA — higher, -0.175
- GCTTGACC — higher, -0.107
- ACCGGCTA — higher, 0.0209
- AAAGGAGA — higher, -0.164
- ATGTCCGG — higher, -0.141
- AGAAACGC — higher, 0.121
- AAAGACTC — higher, -0.193
- CCATGCCG — higher, 0.0296
- GTGTTAAA — higher, 0.462
- ATATTAGA — higher, 0.243
- GGCAGGTA — lower, -0.258
- CCAAGGTA — higher, -0.156
- AATGGAGG — higher, -0.219
- AGATATAC — higher, 0.119
- GCGACGGA — higher, -0.215
- ACAGGAGG — higher, -0.152
- ATAGAGCC — higher, -0.152
- ATATCGTA — higher, 0.149
- GTTAGGTA — higher, 0.159
- AAGGACAG — higher, -0.149
- CTGCGAAC — higher, -0.0978
- ACGATAAT — higher, 0.106
- ATAATTAC — higher, 0.357
- ACATAATG — higher, 0.226
- GTCTTCCA — lower, -0.267
- CGCTATAG — higher, -0.0998
- ATCCGCAG — higher, -0.101
- GCACGTAA — higher, 0.348
- GTAGTAAA — higher, 0.237
- ACAACTAC — higher, 0.225
- GTCTTCAC — higher, -0.0998
- CTATCAAG — higher, -0.137
- GGGGCCTA — lower, -0.31
- AAACCCCA — higher, -0.00673
- ACGCGCGC — higher, 0.306
- CTATCAGA — lower, -0.305
- CTGTGGTC — higher, -0.0843
- AGCATTAA — higher, -0.0186
- TGTATTAA — higher, 0.413
- ACGACCAG — higher, 0.043
- AGGCTGGG — higher, 0.00399
- ACCTCTAA — higher, -0.123
- CGATATTC — higher, -0.202
- AATACATG — higher, 0.482
- CTGTGATA — higher, -0.0525
- ATCCGAAT — higher, 0.0965
- ATAGACTG — higher, -0.0652
- CGAAACTC — lower, -0.242
- AAGGATCT — higher, -0.17
- CCGGAACG — higher, -0.127
- AGCAGGAA — higher, -0.0372
- GCAAGAGA — higher, -0.0361
- ACCGATTC — higher, -0.224
- GCTCGTAC — higher, -0.0377
